Experimental data from the RNAGym collection of RNA variant scans (doi:10.7554/elife.90254).
The source gives no read counts; variants with many changes may rest on few reads.

B1: LINE1-full (parent)
chain: UACGUAGGUGGUUUUCCCCUGAUAGUGCUAAGGGGGCCUGGAAGUUUGGACUGGGCAGAGCUCAACACAGCGUGGCAAAGUGGCUGUGGCUAGACUGCCUCUCUGGAUUCCUCGUCACUCAGCAGGGCAUCUCUGAGAGAAAUGCC

Variants of: B1
Assay: self-cleavage, relative activity (ratio to wild type); higher = more cleavage; in vitro, sequencing; the parent is a self-cleaving ribozyme

Variant | self-cleavage
U14C U20C U39A | 1.15
U14C U23A G88A A140G | 0.07
U14C U23A U87A | 0.21
U14C U23C A42G G75A | 0.63
U14C U23C A77C A121U | 1.06
U14C U23C A77G U87C C111A C120A A142G | 0.27
U14C U23C A78G A136G | 2.8
U14C U23C A138G | 0.77
U14C U23C G60U | 0.12
U14C U23C U29C U96A U119A C131U | 0
U14C U23C U73C | 1.72
U14C U26A A138G | 1.34
U14C U26A G48U G88A U100C | 0
U14C U26A U46A U62C A79G U112C | 0.13
U14C U26A U62A U134C | 0.11
U14C U26A U85C | 0.32
U14C U26C A57U U87G U100A | 0.26
U14C U26C A65G G127A A141G | 0.17
U14C U26C A92U G127U | 1
U14C U26C C56U A94G U115A | 0.18
U14C U26C C76U A117C A141G | 2.77
U14C U26C C84U | 0.27
U14C U26C G58U A138U | 0.07
U14C U26C U52A U96C | 0.14

Variant | self-cleavage
U14C U26C U81C | 0.38
U14C U26C U96C | 0
U14C U26C U108C A142G | 1.75
U14C U26G G49U A50G C84A U96A G125U | 0.08
U14C U26G U91C G114A A124G | 0.84
U14C U29A A140G | 0.8
U14C U29C A31U A94G | 0.45
U14C U29C A50G U130C | 0
U14C U29C G54A C101U | 0.51
U14C U29C U62G | 0
U14C U39A U46A A142G | 1.35
U14C U39C A92G | 0.17
U14C U39C A94G | 0.45
U14C U39C G54A C98G A124U | 0.17
U14C U39C U52A A65G | 0.04
U14C U39C U73C | 1.17
U14C U39G U73A | 1.68
U14C U45A A77G A94U G126C | 0.54
U14C U45A U96G U112A A142G | 0.1
U14C U45C A64G U143A | 0
U14C U45C G49U U130C | 1.33
U14C U45C G53U | 1.21
U14C U45C G75U U85G C99A | 0
U14C U45C G88A A121G | 0

Variant | self-cleavage
U14C U45C U52A A117G A129G | 0.92
U14C U45C U73C A107U | 1.25
U14C U45C U87A | 0.2
U14C U45C U96A | 0.06
U14C U46A A142G | 1.25
U14C U46A U96A | 0.1
U14C U46C C51U U81A | 1.96
U14C U46C C63U A64G A124G | 0
U14C U46C G54A C116A U134A | 0.92
U14C U47A G114A | 0.85
U14C U47A U73A | 0.73
U14C U47C A77U | 0.83
U14C U47C C71A U85C U109A A141U | 0.06
U14C U47C U62A | 0.17
U14C U47C U73C A141G | 1.58
U14C U47C U96G | 0
U14C U47C U104C G125U U143A | 1.5
U14C U52A A78G A129U | 1.44
U14C U52A A121G | 1.01
U14C U52A A121U A141G | 1.15
U14C U52A A136G | 0.59
U14C U52A U119C A136G | 1.02
U14C U52A U132C | 0.78
U14C U52A U132C U143C | 1.86

Variant | self-cleavage
U14C U52C A124G | 0.64
U14C U52C C61U | 0.1
U14C U52C C98G U102C U104C U115A A136U | 0
U14C U52G U96G | 0
U14C U62A U73C G88A | 0.09
U14C U62C A79G C101U | 0
U14C U62C A107G | 0.1
U14C U62C U96A U115A | 0.28
U14C U62C U100C | 0.11
U14C U62C U119C | 0.19
U14C U73A A140G | 1.82
U14C U73C U91C | 0.48
U14C U73C U96A U130A U134A A141G | 0
U14C U73C U132A A138G | 2.21
U14C U81A A140G | 1.07
U14C U81A C146U | 1.13
U14C U81A U104C A107G C113U A117U | 2.53
U14C U81G U102C | 1.13
U14C U85C A92C U96A A142G | 0
U14C U85C U104C | 0.21
U14C U85C U143C | 0.35
U14C U87A A124G A129G U130C | 0
U14C U87A A138G | 0.28
U14C U91C U109G A129G | 0

Variant | self-cleavage
U14C U91C U115C | 0.48
U14C U91C U134C | 1.08
U14C U96A A124G A140G | 0
U14C U96C U115C | 0
U14C U96G U109C | 0.35
U14C U100A A129U | 1.1
U14C U100A U115A | 0.89
U14C U108A A142G | 0.97
U14C U108C U119A | 2.24
U14C U112A A129C | 0.84
U14C U112C A121G | 2.87
U14C U112C A141G | 1.27
U14C U115A A124G | 1.54
U14C U115A A129G | 1.62
U14C U115C A138G | 1.47
U14C U115C A140G | 0.84
U14C U115C U119A | 1.49
U14C U119A A140G | 1.3
U14C U119A A141G | 1
U14C U119C A140G | 1.2
U14C U119C U132A | 1.27
U14C U130C A138G | 1.25
U14C U132A A136U | 1.26
U14C U132C A141G | 1.77

Variant | self-cleavage
U14G A42G A94G | 0
U14G A50U C63U A79G U102G | 0.22
U14G A59G A78G U119C | 0
U14G A65G A78G | 0
U14G A94G U96A | 0.12
U14G A94U A141G | 0.7
U14G G49U U87C | 0.14
U14G U15C A57G U96A | 0
U14G U87C C101U | 0.57
U14G U100C U112C | 2.04
U15A A22C U23C A77U | 1.29
U15A A24G A57G A69C | 0.25
U15A A24G A129G | 0.63
U15A A24G G41A U134A A141G | 0.86
U15A A24G U73C U109C U130C | 0
U15A A24G U85A U108C A141G U143C | 0
U15A A24U A129C | 0.94
U15A A30C U85C U130C | 0
U15A A30G A50U U104A A124U | 1.3
U15A A30G U39C U47A A57G U62C | 0.51
U15A A30U C37A U108A | 1.97
U15A A30U U115A | 1.31
U15A A31G A67G G80A U81C G97C | 0.25
U15A A31G C123U A141G | 0.55

Variant | self-cleavage
U15A A31U U46C U62C U119C A129U | 0.1
U15A A42G U47G C103A U132A | 0.71
U15A A42G U81C | 1.36
U15A A42G U108C | 0.92
U15A A42U A77G | 1.71
U15A A42U U45A | 0.54
U15A A50G U96A | 0.09
U15A A50U U143A | 1.04
U15A A57G U91C C111U U134C U143A | 1.58
U15A A57G U115A A129U | 0.3
U15A A64C U73C C131U | 0.22
U15A A64G G82A | 0.15
U15A A64G U81A | 0.13
U15A A65U U100C A142G | 0.23
U15A A67C G83U U143C | 0.01
U15A A67U U85C | 0.15
U15A A69U A124G | 0.17
U15A A69U C118A A121G A124G | 0.08
U15A A77G C99A A124G | 0.64
U15A A77U U81C | 1.09
U15A A78G A140G | 1.09
U15A A79G A124U | 1.39
U15A A79G U91C A94G C98U U115C | 0
